# Whole data set: some 18,000 sequences, median “TetR repression strength (sort-seq, GFP reporter)” near 0.23, cut for the highest 2% near 0.68. The list shows a part of the results.
# Molecular target: TetR (class B, Tn10) (UniProt P04483)
# Assay: TetR repression strength (sort-seq, GFP reporter) (relative to tetO2 = 1); higher = stronger repression
# Settings: E. coli
# Method in brief: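 Repression strength is the top bin index plus one minus the read-weighted mean bin, relative to the unaltered operator's value. A low-copy library in E. coli SIG10-MAX randomized eight operator positions between a constitutive promoter and sfGFP, with TetR expressed constitutively; cells grew 5 h at 37 °C in LB with 50 µg/mL chloramphenicol and 10^6 were FACS-sorted into 13 bins that were each Illumina-sequenced. Three independent transformations were averaged, keeping only members with ≥30 reads in all replicates and CV ≤0.5.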
# Sequence of UniProt P04483 (P04483 whole entry): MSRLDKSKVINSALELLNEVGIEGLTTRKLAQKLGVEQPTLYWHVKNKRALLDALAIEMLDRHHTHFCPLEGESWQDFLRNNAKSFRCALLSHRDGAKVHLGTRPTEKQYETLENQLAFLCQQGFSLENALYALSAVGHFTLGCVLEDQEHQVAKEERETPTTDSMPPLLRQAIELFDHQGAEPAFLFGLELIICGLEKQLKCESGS
row,Sequence,TetR repression strength
1,TCCCTCGTAGTTCGTGAGA,0.105
2,TCCCCACGAGTCGCTGAGA,0.348
3,TCCCGCCCAGTAGGGGAGA,0.163
4,TCCCATGGAGTTCGGGAGA,0.228
5,TCCCCAGCAGTGATTGAGA,1.1
6,TCCCGGGTAGTAGACGAGA,0.22
7,TCCCAAATAGTAAGGGAGA,0.319
8,TCCCCGTGAGTAAAGGAGA,0.402
9,TCCCGGCAAGTGCGTGAGA,0.181
10,TCCCCTAGAGTAGTCGAGA,0.182
11,TCCCTGTCAGTGAGAGAGA,0.444
12,TCCCGTTAAGTACACGAGA,0.136
13,TCCCGATGAGTGGGCGAGA,0.113
14,TCCCAGCTAGTGATTGAGA,0.306
15,TCCCTTTAAGTGCGCGAGA,0.764
16,TCCCGCCCAGTTGCTGAGA,0.213
17,TCCCTTTAAGTAATAGAGA,0.44
18,TCCCGTTGAGTCTTAGAGA,0.31
19,TCCCCCACAGTCAACGAGA,0.284
20,TCCCATCGAGTACCTGAGA,0.255
21,TCCCCGTGAGTAGTCGAGA,0.229
22,TCCCACACAGTAGGTGAGA,0.028
23,TCCCCGCGAGTATGAGAGA,0.125
24,TCCCGGCCAGTGGGTGAGA,0.267
25,TCCCAATCAGTGAGGGAGA,0.352
26,TCCCTTAGAGTGTGCGAGA,0.207

row,Sequence,TetR repression strength
1,TCCCTCTCAGTGCCGGAGA,0.612
2,TCCCTTGGAGTTCCGGAGA,0.481
3,TCCCCAAAAGTAATTGAGA,0.337
4,TCCCCCTGAGTCGTTGAGA,0.22
5,TCCCCGTGAGTACGTGAGA,0.226
6,TCCCGCAAAGTTAGAGAGA,0.367
7,TCCCGGAAAGTCTTTGAGA,0.373
8,TCCCTCACAGTTGCTGAGA,0.215
9,TCCCTAATAGTTGAGGAGA,0.442
10,TCCCTGTGAGTTGGAGAGA,0.142
11,TCCCACAAAGTGACAGAGA,0.273
12,TCCCTATTAGTGACAGAGA,0.625
13,TCCCTGTAAGTTGAGGAGA,0.267
14,TCCCCGTAAGTACCCGAGA,0.351
15,TCCCAGGCAGTTGATGAGA,0.281
16,TCCCAAACAGTCGGGGAGA,0.274
17,TCCCAATCAGTAGGTGAGA,0.25
18,TCCCTTCGAGTCTTAGAGA,0.531
19,TCCCGGTAAGTGGTAGAGA,0.194
20,TCCCACTGAGTCATCGAGA,0.357
21,TCCCCGGGAGTGGTAGAGA,0.257
22,TCCCGCCCAGTGTACGAGA,0.337
23,TCCCGCGAAGTGGGAGAGA,0.0441
24,TCCCTGTAAGTTGATGAGA,0.236
25,TCCCGTGTAGTAGACGAGA,0.175
26,TCCCGGAGAGTGTATGAGA,0.188

row,Sequence,TetR repression strength
1,TCCCACTAAGTTTTGGAGA,0
2,TCCCGAACAGTGCTGGAGA,0.328
3,TCCCTTATAGTGGGCGAGA,0.178
4,TCCCGGTCAGTGATAGAGA,0.665
5,TCCCCGAGAGTTCTGGAGA,0.475
6,TCCCGCCCAGTGGTGGAGA,0.0548
7,TCCCTTCCAGTCTCTGAGA,0.325
8,TCCCTGTTAGTTTCGGAGA,0.178
9,TCCCTCTCAGTGGGCGAGA,0.474
10,TCCCTAACAGTCGATGAGA,0.444
11,TCCCGGGCAGTAATAGAGA,0.192
12,TCCCTAGAAGTGGGAGAGA,0.231
13,TCCCGAGCAGTCTGAGAGA,0.149
14,TCCCTCTAAGTGGGGGAGA,0.254
15,TCCCTGGCAGTAGGTGAGA,0.102
16,TCCCGGTCAGTTGAGGAGA,0.219
17,TCCCTACTAGTGGGTGAGA,0.165
18,TCCCAGACAGTGTCGGAGA,0.377
19,TCCCCGGGAGTCCCGGAGA,0.104
20,TCCCTTAAAGTCGGAGAGA,0.0415
21,TCCCGGGCAGTCCCAGAGA,0.218
22,TCCCCGAAAGTGAATGAGA,0.146
23,TCCCTGGCAGTCCTCGAGA,0.325
24,TCCCGCCGAGTTAGAGAGA,0.395
25,TCCCGATGAGTCAGGGAGA,0.174
26,TCCCGACTAGTACATGAGA,0.625

row,Sequence,TetR repression strength
1,TCCCACGCAGTTGCGGAGA,0.133
2,TCCCAGCAAGTATCTGAGA,0.0805
3,TCCCAATAAGTATAGGAGA,0.396
4,TCCCCGGTAGTGGATGAGA,0.184
5,TCCCTGTCAGTTGTTGAGA,0.249
6,TCCCCGTAAGTGTTTGAGA,0.207
7,TCCCCTTTAGTCCCTGAGA,0.355
8,TCCCCTGGAGTAGCGGAGA,0.15
9,TCCCGTGTAGTGATTGAGA,0.246
10,TCCCTGAAAGTAGGGGAGA,0.17
11,TCCCGTGCAGTGTCAGAGA,0.168
12,TCCCCGGCAGTAGGAGAGA,0.252
13,TCCCTCAAAGTATAGGAGA,0.293
14,TCCCGTTTAGTGGCCGAGA,0.0159
15,TCCCTGGTAGTCGCAGAGA,0.0716
16,TCCCCAGAAGTGGCGGAGA,0.199
17,TCCCTGGGAGTACTAGAGA,0.119
18,TCCCGAACAGTGGTGGAGA,0.37
19,TCCCAGTTAGTTTCCGAGA,0.292
20,TCCCTGTAAGTGACCGAGA,0.222
21,TCCCCTAGAGTTTAGGAGA,0.127
22,TCCCATATAGTGTGGGAGA,0.249
23,TCCCATCCAGTCTCAGAGA,0.356
24,TCCCATTGAGTGGAGGAGA,0.28
